Data as given in the supplement of paper PMC9174493.
Structures can show the parent of a compound that is named as a salt. Some of the results follow. Single values of this set are uncertain. Values with irradiation are relative to irradiated vehicle.

Tested on: A549-Dual
Assay: NF-kB reporter (SEAP) activity, viability-corrected, relative to vehicle (fold change vs vehicle); higher = more activation of STING-IRF / NF-kB immune response reporter
Details: 10 µM; irradiation: none
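Note: viability correction based on the alamar blue assay, with concentrations leaving 10% survival or less dropped.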

Row | Compound | NF-kB reporter
1 | CS(=O)(=O)O.Fc1ccc(C2CCNCC2COc2ccc3c(c2)OCO3)cc1 (centres undefined) [Paroxetine mesylate] | 1.12
2 | Clc1ccccc1C(c1ccccc1)(c1ccccc1)n1ccnc1 [Clotrimazole] | 0.767
3 | CCS(=O)(=O)CCn1c([N+](=O)[O-])cnc1C [Tinidazole] | 0.987
4 | Clc1ccc(COC(Cn2ccnc2)c2ccc(Cl)cc2Cl)cc1 (centres undefined) [Econazole] | 0.538
5 | O=C(O)c1ccc(NC(=O)C(Cc2ccc(O)cc2)NC(=O)c2ccccc2)cc1 (centres undefined) [Bentiromide] | 0.523
6 | OCC(O)C(O)C(OC1OC(CO)C(O)C(O)C1O)C(O)CO (centres undefined) [Lactitol] | 0.926
7 | CCNC(=O)CC[C@H](N)C(=O)O [L-Theanine] | 0.669
8 | CN(C)CC/C=C1/c2ccccc2Sc2ccc(Cl)cc21 [Chlorprothixene] | 1.02
9 | CC(=O)OC1Cc2ccccc2N(C(N)=O)c2ccccc21 (centres undefined) [Eslicarbazepine Acetate] | 1.08
10 | COc1ccc(CN(CCN(C)C)c2ncccn2)cc1 [Thonzylamine] | 0.967
11 | CC1(C)CCCC(C)(C2CCC3(C)C2C(O)CC2C4(C)CCC(O)C(C)(C)C4C(O)CC23C)O1 (centres undefined) [Panaxatriol] | 0.881
12 | CN(C)C(CCOc1cccc2ccccc12)c1ccccc1.Cl (centres undefined) [Dapoxetine HCl] | 0.765
13 | CNCC(O)C(O)C(O)C(O)CO.CNCC(O)C(O)C(O)C(O)CO.O=C(O)CN1CCN2CCN(CC(=O)O)CC(=O)[O][Gd]([O]C(=O)C2)[O]C(=O)C1 [Gadopentetate Dimeglumine] | 0.72
14 | O=C[C@H](O)[C@@H](O)[C@H](O)[C@H](O)C(=O)O [D-Glucuronic acid] | 0.738
15 | CC(=O)O.CC(=O)O.CCC(C)CC(C)CCCCCCCCC(=O)NC1CC(O)C(NCCN)NC(=O)C2C(O)CCN2C(=O)C(C(O)CCN)NC(=O)C(C(O)C(O)c2ccc(O)cc2)NC(=O)C2CC(O)CN2C(=O)C(C(C)O)NC1=O (centres undefined) [Caspofungin Acetate] | 0.953
16 | CC(OC(=O)OC1CCCCC1)OC(=O)C1=C(CSc2nnnn2CCN(C)C)CSC2C(NC(=O)Cc3csc(N)n3)C(=O)N12.Cl.Cl (centres undefined) [Cefotiam Hexetil Hydrochloride] | 1.96
17 | CCCCCN(C)CCC(O)(P(=O)(O)O)P(=O)(O)O.O.[NaH] [Ibandronate sodium] | 0.947
18 | CC(O)C1C(=O)N2C(C(=O)O)=C(SC3CNC(CNS(N)(=O)=O)C3)C(C)C12.O (centres undefined) [Doripenem Hydrate] | 0.905
19 | CS(=O)(=O)OCCCCOS(C)(=O)=O [Busulfan] | 1.03
20 | CCOCCn1c(N2CCCN(C)CC2)nc2ccccc21 [Emedastine] | 1.09

Row | Compound | NF-kB reporter
21 | CC1(C)OC2COC3(COS(N)(=O)=O)OC(C)(C)OC3C2O1 (centres undefined) [Topiramate] | 0.915
22 | O=C(O)CCCCCCCCC(=O)O [Sebacic acid] | 0.921
23 | Nc1nc(=O)[nH]cc1F [Flucytosine] | 0.939
24 | CCCCCCCCCCCCCCCCCCOCC(O)CO (centres undefined) [Batyl alcohol] | 0.848
25 | CC(CN(C)C)CN1c2ccccc2CCc2ccccc21.O=C(O)/C=C\C(=O)O (centres undefined) [Trimipramine Maleate] | 0.697
26 | CCCCCCCC/C=C\CCCCCCCC(=O)OC [Methyl Oleate] | 0.597
27 | CC(O)C1C(=O)N2C(C(=O)[O-])=C(SC3Cn4cnc[n+]4C3)C(C)C12 (centres undefined) [Biapenem] | 1.66
28 | CN(C)c1cc(NC(=O)CNC(C)(C)C)c(O)c2c1CC1CC3C(N(C)C)C(O)=C(C(N)=O)C(=O)C3(O)C(O)=C1C2=O (centres undefined) [Tigecycline] | 0.962
29 | CC(=O)NS(=O)(=O)c1ccc(N)cc1 [Sulfacetamide] | 0.837
30 | CN(C)CCOC(C)(c1ccccc1)c1ccccn1.O=C(O)CCC(=O)O (centres undefined) [Doxylamine Succinate] | 1.35
31 | CC(C)c1nc(N(C)S(C)(=O)=O)nc(-c2ccc(F)cc2)c1/C=C/C(O)CC(O)CC(=O)[O-].CC(C)c1nc(N(C)S(C)(=O)=O)nc(-c2ccc(F)cc2)c1/C=C/C(O)CC(O)CC(=O)[O-].[Ca+2] (centres undefined) [Rosuvastatin Calcium] | 1.16
32 | Cc1cc(C)nc([N]([Na])S(=O)(=O)c2ccc(N)cc2)n1 [Sulfamethazine Sodium Salt] | 0.954
33 | Cc1nc2c([nH]1)-c1ccccc1N(C(=O)c1ccc(NC(=O)c3ccccc3-c3ccccc3)cc1)CC2.Cl [Conivaptan HCl] | 0.838
34 | O=C(Nc1ccc2c(=O)cc(-c3nnn[nH]3)oc2c1)c1ccc(OCCCCc2ccccc2)cc1 [Pranlukast] | 0.45
35 | C[C@H](O)C(=O)O [L-Lactic acid] | 0.824
36 | CC1=C(C(=O)O)N2C(=O)C(NC(=O)C(N)C3=CCC=CC3)C2SC1 (centres undefined) [Cefradine] | 0.847
37 | O=C1c2c(O)cccc2Cc2cccc(O)c21 [Dithranol] | 0.481
38 | O=c1c(-c2ccc(O)cc2)coc2cc(O)ccc12 [Daidzein] | 1.2
39 | CC(C)(CO)C(O)C(=O)NCCC(=O)NCCSSCCNC(=O)CCNC(=O)C(O)C(C)(C)CO [D-Pantethine] | 0.619
